Source: PMC6919601, “Identification of Plasmodium dipeptidyl aminopeptidase allosteric inhibitors by high throughput screening” (PLoS ONE, 2019)
The campaign covered roughly 110,000 compounds. About 230 (0.21%) showed an effect of 50% or more. Some of the results follow.

Molecular target: DPAP1 (Plasmodium falciparum, UniProt Q8IIJ9)
Test: primary screen, percent inhibition; read by cleavage of a fluorogenic dipeptide substrate; higher = more effect of the substance
Design: species or system P. falciparum D10 trophozoite lysates; single well
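Note: 30 min substrate incubation versus DMSO and 10 µM JCP410 controls.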

DPAP1, sequence (Q8IIJ9 whole entry, looked up): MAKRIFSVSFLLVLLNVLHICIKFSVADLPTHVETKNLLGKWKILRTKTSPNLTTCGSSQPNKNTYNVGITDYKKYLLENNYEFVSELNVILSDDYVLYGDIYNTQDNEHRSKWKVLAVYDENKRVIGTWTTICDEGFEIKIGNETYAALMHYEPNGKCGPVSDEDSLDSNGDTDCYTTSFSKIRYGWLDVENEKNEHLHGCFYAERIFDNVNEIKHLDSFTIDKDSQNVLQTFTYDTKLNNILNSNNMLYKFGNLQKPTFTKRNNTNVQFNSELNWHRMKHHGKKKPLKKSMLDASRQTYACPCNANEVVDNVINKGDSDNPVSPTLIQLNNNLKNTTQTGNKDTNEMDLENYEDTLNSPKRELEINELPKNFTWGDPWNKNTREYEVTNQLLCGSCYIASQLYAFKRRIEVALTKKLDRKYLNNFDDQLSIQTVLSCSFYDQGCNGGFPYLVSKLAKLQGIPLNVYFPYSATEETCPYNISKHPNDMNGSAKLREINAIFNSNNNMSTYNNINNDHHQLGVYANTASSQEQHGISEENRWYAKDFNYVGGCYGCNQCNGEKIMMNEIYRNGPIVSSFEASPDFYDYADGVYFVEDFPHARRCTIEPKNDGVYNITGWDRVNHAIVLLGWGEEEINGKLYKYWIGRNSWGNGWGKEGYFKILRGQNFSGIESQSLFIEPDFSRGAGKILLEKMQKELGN

Row | Structure (SMILES) | % Inhibition @ 10 uM
1 | O=C1c2cccc3cccc(c23)C(=O)N1c1ccc(F)cc1 | -0.69%
2 | CCN1CCN(CC2=CC[C@H]3C[C@@H]2C3(C)C)CC1 | -0.817%
3 | O=C1N=C(Nc2ccc(F)cc2)S/C1=C\c1ccc2c(c1)OCO2 | -4.72%
4 | COc1ccc(Oc2nc3c(C)cccn3c(=O)c2/C=C(\C#N)c2nc3ccccc3n2C)cc1 | -1.43%
5 | Cn1c(=O)c2nc(N3CCN(CCO)CC3)[nH]c2n(C)c1=O | 4%
6 | CCCS(=O)(=O)N1N=C(c2ccc(Cl)cc2)CC1c1ccco1 (stereo not shown) | -0.297%
7 | Cc1ccccc1S(=O)(=O)Nc1cccc(NS(=O)(=O)c2ccccc2C)n1 | 4.41%
8 | Oc1nc(Nc2ccccc2)nc2[nH]cnc12 | 3.48%
9 | CC1CC(C)CN(c2cnn(C34CC5CC(CC(C5)C3C(=O)O)C4)c(=O)c2Cl)C1 (stereo not shown) | -0.522%
10 | Cc1ccc(/C=C(\NC(=O)c2ccccc2)C(=O)NCCN2CCOCC2)o1 | 5.9%
11 | CCOc1ccccc1C1C=C(c2ccc(OC)cc2)Nc2ncnn21 (stereo not shown) | -3.37%
12 | COC(=O)c1ccc(OCC2c3cc(OC)c(OC)cc3CCN2C(=O)/C=C/c2ccccc2)cc1 (stereo not shown) | 0.868%
13 | C=CCOc1ccc(/C=C2\SC(=O)N(CC(=O)N3CCOCC3)C2=O)cc1OC | -0.68%
14 | Cn1c(=O)[nH]c(=O)c2c1nc(SCC(=O)O)n2Cc1ccccc1 | -2.59%
15 | Cc1ccc2c(c1)C(N1CCCC1=O)CC(c1ccco1)N2 (stereo not shown) | -2.29%
16 | N#CC1=C(N)Oc2cc(O)ccc2C1c1ccccc1F (stereo not shown) | -0.413%
17 | CCOc1ccc(C2N3CC4(C)CN2CC(c2ccccc2)(C3)C4=O)cc1OC (stereo not shown) | 2.05%
18 | CCSc1nc(-c2ccccc2)cc(-c2ccccc2)c1C#N | 2.47%
19 | Cc1ccc(S(=O)(=O)c2nnn3c2nc(NCCCOC(C)C)c2cc(Cl)ccc23)cc1C | -3.3%
20 | CCN1C(=O)NC(c2ccc(Cl)cc2)C(C(=O)OCCc2ccccc2)=C1C (stereo not shown) | 4.35%
21 | COc1ccc(/C=C2\S/C(=N/c3cccc(C(=O)O)c3)N(C)C2=O)c(OC)c1 | -3.03%
22 | CCOC(=O)c1c(NC(=O)c2ccccc2F)sc(C(=O)N2CCCCC2)c1C | -3.74%
23 | Cc1ccccc1NC(=O)C1C2c3ccccc3OC1(C)N=c1s/c(=C/c3cnn(C)c3C)c(=O)n12 (stereo not shown) | -3.26%
24 | CN(Cc1ccc2c(c1)OCO2)C1CCCCC1 | 0.273%
25 | O=C(c1cn(-c2ccccc2)nc1-c1ccccc1)N1CCOCC1 | 3.98%

Row | Structure (SMILES) | % Inhibition @ 10 uM
26 | C[n+]1c(/C=C/c2ccc3c(c2)OCO3)sc2ccccc21 | -1.4%
27 | CN(Cc1ccccc1)C(=O)C1=CC(c2cccs2)=NS(=O)(=O)N1C | -1.06%
28 | O=C(NCc1ccccc1)c1ccc(CS(=O)(=O)c2ccc(Br)cc2)cc1 | 3.25%
29 | CC1(C)[C@H]2CC=C(CN3CCC(O)CC3)[C@@H]1C2 | -1.78%
30 | Cn1cc(C(=O)C(=O)NCCc2ccccc2)c2ccccc21 | 1.32%
31 | COc1cc(OC)cc(C(=O)N2CCN(C3CCCCC3)CC2)c1 | -9.7%
32 | COc1cc(/C=C(\C#N)c2nc3cc(C)ccc3[nH]2)cc(Cl)c1O | 2.36%
33 | COc1ccc2[nH]c3c(=O)n(Cc4ccc(C(=O)N5CCC(C(N)=O)CC5)cc4)c(=S)[nH]c3c2c1 | 28.2%
34 | CCN(CC)CCCNC(=O)CCCn1nc(C)c2sc3ccccc3c2c1=O | -5.12%
35 | CC(C#N)(Nc1ccccc1)c1ccccn1 (stereo not shown) | 2.5%
36 | O=C1OCc2ccccc21 | 5.58%
37 | CC(C)(C)C(=O)Nc1ccc(C(=O)Nc2cccc(O)c2)cc1 | -2.63%
38 | Cc1ccc(Nc2nc(N)nc(CSc3nc(C)cc(C)n3)n2)cc1 | 3.35%
39 | O=S(=O)(c1ccccc1)c1nnn2c1nc(NCCc1ccc(Cl)cc1)c1ccccc12 | -6.68%
40 | COc1ccc(N(CC(=O)NC(C)C)S(=O)(=O)c2ccc(C)cc2)cc1Cl | -9.26%
41 | CCOc1ccc(-c2cc(OC(=O)c3ccco3)c3c(C)oc(C)c3c(=O)c2)cc1 | -2.75%
42 | CC(C)CN(CC(C)C)c1ncnc2c1cnn2-c1ccccc1 | -1.79%
43 | Cc1cc2c(c(=O)o1)C(c1ccc(Cl)cc1Cl)C(C#N)=C(N)O2 (stereo not shown) | -5.5%
44 | O=C(c1cccs1)N1CCN(c2ncccn2)CC1 | -0.95%
45 | COc1ccc(Cc2nc3c4cnn(C)c4ncn3n2)cc1OC | 2.19%
46 | COc1ccc(Br)cc1CNC(=O)Cn1ncn2c(cc3sc(C)cc32)c1=O | 4.84%
47 | Cc1nn(Cc2ccc(C(=O)NC3CCCCC3)cc2)c(C)c1Cl | 0.76%
48 | O=c1ccc2nc3ccccc3c(=O)n2[nH]1 | -6.22%
49 | CC1CCN(S(=O)(=O)c2ccc3c(ccn3CC(=O)NCc3ccccc3Cl)c2)CC1 | 1.41%
